Results as given in the supplement of paper PMC11876631.
± gives the standard deviation of the averaged measurements. Laboratory Escherichia coli strains with one amino-acid change in an essential protein, pooled on minimal glucose agar with carbenicillin or gentamicin at twice the control MIC (plus kanamycin and chloramphenicol for the plasmids), 48 h. Fold change of barcode share against drug-free plates; higher = less susceptible. Active = above 20 in both replicates (the paper's putatively resistant). '<' = one read or none on drug, '>' = one read or none on a drug-free plate. Shares are relative, so most strains fall below 1 when a few take over. Listed are strains with at least 15 reads on both drug-free plates, and hits; most hits rest on fewer reference reads. Replicate rank correlation about 0.5. Edits are read from barcodes.

B1: pdxB V96Q (protein)
chain: MKILVDENMPYARDLFSRLGEVTAVPGRPIPVAQLADADALMVRSVTKVNESLLAGKPIKFVGTATAGTDHVDEAWLKQAGIGFSAAPGCNAIAVQEYVFSSLLMLAERDGFSLYDRTVGIVGVGNVGRRLQARLEALGIKTLLCDPPRADRGDEGDFRSLDELVQRADILTFHTPLFKDGPYKTLHLADEKLIRSLKPGAILINACRGAVVDNTALLTCLNEGQKLSVVLDVWEGEPELNVELLKKVDIGTSHIAGYTLEGKARGTTQVFEAYSKFIGHEQHVALDTLLPAPEFGRITLHGPLDQPTLKRLVHLVYDVRRDDAPLRKVAGIPGEFDKLRKNYLERREWSSLYVICDDASAASLLCKLGFNAVHHPAR
B2: pdxB V96D (protein)
chain: MKILVDENMPYARDLFSRLGEVTAVPGRPIPVAQLADADALMVRSVTKVNESLLAGKPIKFVGTATAGTDHVDEAWLKQAGIGFSAAPGCNAIAVDEYVFSSLLMLAERDGFSLYDRTVGIVGVGNVGRRLQARLEALGIKTLLCDPPRADRGDEGDFRSLDELVQRADILTFHTPLFKDGPYKTLHLADEKLIRSLKPGAILINACRGAVVDNTALLTCLNEGQKLSVVLDVWEGEPELNVELLKKVDIGTSHIAGYTLEGKARGTTQVFEAYSKFIGHEQHVALDTLLPAPEFGRITLHGPLDQPTLKRLVHLVYDVRRDDAPLRKVAGIPGEFDKLRKNYLERREWSSLYVICDDASAASLLCKLGFNAVHHPAR
B3: pdxB V96P (protein)
chain: MKILVDENMPYARDLFSRLGEVTAVPGRPIPVAQLADADALMVRSVTKVNESLLAGKPIKFVGTATAGTDHVDEAWLKQAGIGFSAAPGCNAIAVPEYVFSSLLMLAERDGFSLYDRTVGIVGVGNVGRRLQARLEALGIKTLLCDPPRADRGDEGDFRSLDELVQRADILTFHTPLFKDGPYKTLHLADEKLIRSLKPGAILINACRGAVVDNTALLTCLNEGQKLSVVLDVWEGEPELNVELLKKVDIGTSHIAGYTLEGKARGTTQVFEAYSKFIGHEQHVALDTLLPAPEFGRITLHGPLDQPTLKRLVHLVYDVRRDDAPLRKVAGIPGEFDKLRKNYLERREWSSLYVICDDASAASLLCKLGFNAVHHPAR
B4: pdxB L104W (protein)
chain: MKILVDENMPYARDLFSRLGEVTAVPGRPIPVAQLADADALMVRSVTKVNESLLAGKPIKFVGTATAGTDHVDEAWLKQAGIGFSAAPGCNAIAVVEYVFSSLWMLAERDGFSLYDRTVGIVGVGNVGRRLQARLEALGIKTLLCDPPRADRGDEGDFRSLDELVQRADILTFHTPLFKDGPYKTLHLADEKLIRSLKPGAILINACRGAVVDNTALLTCLNEGQKLSVVLDVWEGEPELNVELLKKVDIGTSHIAGYTLEGKARGTTQVFEAYSKFIGHEQHVALDTLLPAPEFGRITLHGPLDQPTLKRLVHLVYDVRRDDAPLRKVAGIPGEFDKLRKNYLERREWSSLYVICDDASAASLLCKLGFNAVHHPAR
B5: pdxB L104Q (protein)
chain: MKILVDENMPYARDLFSRLGEVTAVPGRPIPVAQLADADALMVRSVTKVNESLLAGKPIKFVGTATAGTDHVDEAWLKQAGIGFSAAPGCNAIAVVEYVFSSLQMLAERDGFSLYDRTVGIVGVGNVGRRLQARLEALGIKTLLCDPPRADRGDEGDFRSLDELVQRADILTFHTPLFKDGPYKTLHLADEKLIRSLKPGAILINACRGAVVDNTALLTCLNEGQKLSVVLDVWEGEPELNVELLKKVDIGTSHIAGYTLEGKARGTTQVFEAYSKFIGHEQHVALDTLLPAPEFGRITLHGPLDQPTLKRLVHLVYDVRRDDAPLRKVAGIPGEFDKLRKNYLERREWSSLYVICDDASAASLLCKLGFNAVHHPAR
B6: pdxB L104D (protein)
chain: MKILVDENMPYARDLFSRLGEVTAVPGRPIPVAQLADADALMVRSVTKVNESLLAGKPIKFVGTATAGTDHVDEAWLKQAGIGFSAAPGCNAIAVVEYVFSSLDMLAERDGFSLYDRTVGIVGVGNVGRRLQARLEALGIKTLLCDPPRADRGDEGDFRSLDELVQRADILTFHTPLFKDGPYKTLHLADEKLIRSLKPGAILINACRGAVVDNTALLTCLNEGQKLSVVLDVWEGEPELNVELLKKVDIGTSHIAGYTLEGKARGTTQVFEAYSKFIGHEQHVALDTLLPAPEFGRITLHGPLDQPTLKRLVHLVYDVRRDDAPLRKVAGIPGEFDKLRKNYLERREWSSLYVICDDASAASLLCKLGFNAVHHPAR
B7: pdxB V313A (protein)
chain: MKILVDENMPYARDLFSRLGEVTAVPGRPIPVAQLADADALMVRSVTKVNESLLAGKPIKFVGTATAGTDHVDEAWLKQAGIGFSAAPGCNAIAVVEYVFSSLLMLAERDGFSLYDRTVGIVGVGNVGRRLQARLEALGIKTLLCDPPRADRGDEGDFRSLDELVQRADILTFHTPLFKDGPYKTLHLADEKLIRSLKPGAILINACRGAVVDNTALLTCLNEGQKLSVVLDVWEGEPELNVELLKKVDIGTSHIAGYTLEGKARGTTQVFEAYSKFIGHEQHVALDTLLPAPEFGRITLHGPLDQPTLKRLAHLVYDVRRDDAPLRKVAGIPGEFDKLRKNYLERREWSSLYVICDDASAASLLCKLGFNAVHHPAR
B8: pdxB V313Q (protein)
chain: MKILVDENMPYARDLFSRLGEVTAVPGRPIPVAQLADADALMVRSVTKVNESLLAGKPIKFVGTATAGTDHVDEAWLKQAGIGFSAAPGCNAIAVVEYVFSSLLMLAERDGFSLYDRTVGIVGVGNVGRRLQARLEALGIKTLLCDPPRADRGDEGDFRSLDELVQRADILTFHTPLFKDGPYKTLHLADEKLIRSLKPGAILINACRGAVVDNTALLTCLNEGQKLSVVLDVWEGEPELNVELLKKVDIGTSHIAGYTLEGKARGTTQVFEAYSKFIGHEQHVALDTLLPAPEFGRITLHGPLDQPTLKRLQHLVYDVRRDDAPLRKVAGIPGEFDKLRKNYLERREWSSLYVICDDASAASLLCKLGFNAVHHPAR
B9: pdxH V55A (protein)
chain: MSDNDELQQIAHLRREYTKGGLRRRDLPADPLTLFERWLSQACEAKLADPTAMVAATVDEHGQPYQRIVLLKHYDEKGMVFYTNLGSRKAHQIENNPRVSLLFPWHTLERQVMVIGKAERLSTLEVMKYFHSRPRDSQIGAWVSKQSSRISARGILESKFLELKQKFQQGEVPLPSFWGGFRVSLEQIEFWQGGEHRLHDRFLYQRENDAWKIDRLAP
B10: pdxH V55Q (protein)
chain: MSDNDELQQIAHLRREYTKGGLRRRDLPADPLTLFERWLSQACEAKLADPTAMVQATVDEHGQPYQRIVLLKHYDEKGMVFYTNLGSRKAHQIENNPRVSLLFPWHTLERQVMVIGKAERLSTLEVMKYFHSRPRDSQIGAWVSKQSSRISARGILESKFLELKQKFQQGEVPLPSFWGGFRVSLEQIEFWQGGEHRLHDRFLYQRENDAWKIDRLAP
B11: pdxH V55D (protein)
chain: MSDNDELQQIAHLRREYTKGGLRRRDLPADPLTLFERWLSQACEAKLADPTAMVDATVDEHGQPYQRIVLLKHYDEKGMVFYTNLGSRKAHQIENNPRVSLLFPWHTLERQVMVIGKAERLSTLEVMKYFHSRPRDSQIGAWVSKQSSRISARGILESKFLELKQKFQQGEVPLPSFWGGFRVSLEQIEFWQGGEHRLHDRFLYQRENDAWKIDRLAP
B12: pdxH F81W (protein)
chain: MSDNDELQQIAHLRREYTKGGLRRRDLPADPLTLFERWLSQACEAKLADPTAMVVATVDEHGQPYQRIVLLKHYDEKGMVWYTNLGSRKAHQIENNPRVSLLFPWHTLERQVMVIGKAERLSTLEVMKYFHSRPRDSQIGAWVSKQSSRISARGILESKFLELKQKFQQGEVPLPSFWGGFRVSLEQIEFWQGGEHRLHDRFLYQRENDAWKIDRLAP
B13: pdxH M53A (protein)
chain: MSDNDELQQIAHLRREYTKGGLRRRDLPADPLTLFERWLSQACEAKLADPTAAVVATVDEHGQPYQRIVLLKHYDEKGMVFYTNLGSRKAHQIENNPRVSLLFPWHTLERQVMVIGKAERLSTLEVMKYFHSRPRDSQIGAWVSKQSSRISARGILESKFLELKQKFQQGEVPLPSFWGGFRVSLEQIEFWQGGEHRLHDRFLYQRENDAWKIDRLAP
B14: pdxH M53Q (protein)
chain: MSDNDELQQIAHLRREYTKGGLRRRDLPADPLTLFERWLSQACEAKLADPTAQVVATVDEHGQPYQRIVLLKHYDEKGMVFYTNLGSRKAHQIENNPRVSLLFPWHTLERQVMVIGKAERLSTLEVMKYFHSRPRDSQIGAWVSKQSSRISARGILESKFLELKQKFQQGEVPLPSFWGGFRVSLEQIEFWQGGEHRLHDRFLYQRENDAWKIDRLAP
B15: pdxH M53P (protein)
chain: MSDNDELQQIAHLRREYTKGGLRRRDLPADPLTLFERWLSQACEAKLADPTAPVVATVDEHGQPYQRIVLLKHYDEKGMVFYTNLGSRKAHQIENNPRVSLLFPWHTLERQVMVIGKAERLSTLEVMKYFHSRPRDSQIGAWVSKQSSRISARGILESKFLELKQKFQQGEVPLPSFWGGFRVSLEQIEFWQGGEHRLHDRFLYQRENDAWKIDRLAP

Biological target: Escherichia coli (laboratory strain)
Experiment: barcode share on antibiotic plates over drug-free plates; higher = less susceptible
Protocol: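 A pool of E. coli strains, each edited to carry one amino-acid change in an essential protein, was grown for 48 h on minimal glucose agar with or without antibiotic; strain barcodes were sequenced; mean of two replicates.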

[1] = antibiotic: carbenicillin, 2× MIC (3.1 µg/mL)
[2] = antibiotic: gentamicin, 2× MIC (MIC 0.45 µg/mL)

| Protein | fold change of barcode share [1] | fold change of barcode share [2] |
| --- | --- | --- |
| B1 | 0.425 ± 0.097 | 0.0121 ± 0.0033 |
| B2 | 0.717 ± 0.19 | 0.0157 ± 0.0066 |
| B3 | 0.409 ± 0.034 | 0.0117 ± 0.00075 |
| B4 | 0.657 ± 0.36 | < 0.0115 |
| B5 | 0.625 ± 0.029 | < 0.0112 |
| B6 | 1.34 ± 0.26 | – |
| B7 | 0.594 ± 0.29 | < 0.0144 |
| B8 | 0.68 ± 0.16 | < 0.0123 |
| B9 | 0.328 ± 0.014 | 0.00971 ± 0.0092 |
| B10 | 0.724 ± 0.044 | 0.00913 ± 0.007 |
| B11 | 0.903 ± 0.54 | – |
| B12 | 0.184 ± 0.025 | – |
| B13 | 0.526 ± 0.29 | 0.00337 ± 0.00045 |
| B14 | 0.291 ± 0.08 | 0.00262 ± 0.00044 |
| B15 | 1.47 ± 0.66 | 0.00509 ± 0.0059 |
